According to the supplement of paper PMC8728848:
Some of the results follow.

Key:
Assay in all cases: glycan array binding signal (z-score within array); higher = stronger binding
Conditions in all cases: glycan notation: IUPAC condensed, linker removed
Fuc(a1-2)Gal = biological target: Fuc(a1-2)Gal
Outline: (§1)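 Columns mapping to the same glycan were averaged after glycan names were converted to IUPAC-condensed notation. The data come from 3228 arrays in the Consortium for Functional Glycomics database, limited to those with an available protein sequence. Binding is reported as a within-array Z-score averaged across arrays of one protein sequence and across linkers.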

Fuc(a1-2)Gal(b1-3)GalNAc = biological target: Fuc(a1-2)Gal(b1-3)GalNAc
Outline: as §1

[1] = biological target: Fuc(a1-2)Gal(b1-3)GalNAc(a1-3)[Fuc(a1-2)]Gal(b1-4)Glc
Outline: as §1

[2] = biological target: Fuc(a1-2)Gal(b1-3)GalNAc(a1-3)[Fuc(a1-2)]Gal(b1-4)GlcNAc
Outline: as §1

[3] = biological target: Fuc(a1-2)Gal(b1-3)GalNAc(b1-3)Gal
Outline: as §1

[4] = biological target: Fuc(a1-2)Gal(b1-3)GalNAc(b1-3)Gal(a1-4)Gal(b1-4)Glc
Outline: as §1

[5] = biological target: Fuc(a1-2)Gal(b1-3)GalNAc(b1-4)[Neu5Ac(a2-3)]Gal(b1-4)Glc
Outline: as §1

Fuc(a1-2)Gal(b1-3)GlcNAc = biological target: Fuc(a1-2)Gal(b1-3)GlcNAc
Outline: as §1

[6] = biological target: Fuc(a1-2)Gal(b1-3)GlcNAc(b1-2)Man(a1-3)[Fuc(a1-2)Gal(b1-3)GlcNAc(b1-2)Man(a1-6)]Man(b1-4)GlcNAc(b1-4)GlcNAc
Outline: as §1

[7] = biological target: Fuc(a1-2)Gal(b1-3)GlcNAc(b1-2)Man(a1-3)[Fuc(a1-2)Gal(b1-3)GlcNAc(b1-2)Man(a1-6)]Man(b1-4)GlcNAc(b1-4)[Fuc(a1-6)]GlcNAc
Outline: as §1

[8] = biological target: Fuc(a1-2)Gal(b1-3)GlcNAc(b1-3)Gal(b1-4)Glc
Outline: as §1

[9] = biological target: Fuc(a1-2)Gal(b1-3)GlcNAc(b1-3)GalNAc
Outline: as §1

[10] = biological target: Fuc(a1-2)Gal(b1-3)GlcNAc(b1-3)[Fuc(a1-2)Gal(b1-3)GlcNAc(b1-6)]GalNAc
Outline: as §1

[11] = biological target: Fuc(a1-2)Gal(b1-3)GlcNAc(b1-3)[Gal(b1-4)GlcNAc(b1-6)]Gal(b1-4)Glc
Outline: as §1

[12] = biological target: Fuc(a1-2)Gal(b1-3)GlcNAc(b1-3)[Neu5Ac(a2-6)Gal(b1-4)GlcNAc(b1-6)]Gal(b1-4)Glc
Outline: as §1

[13] = biological target: Fuc(a1-2)Gal(b1-3)GlcNAc6S
Outline: as §1

[14] = biological target: Fuc(a1-2)Gal(b1-3)[Fuc(a1-4)]GlcNAc
Outline: as §1

[15] = biological target: Fuc(a1-2)Gal(b1-3)[Fuc(a1-4)]GlcNAc(b1-2)Man(a1-3)[Fuc(a1-2)Gal(b1-3)[Fuc(a1-4)]GlcNAc(b1-2)Man(a1-3)]Man(b1-4)GlcNAc(b1-4)GlcNAc
Outline: as §1

[16] = biological target: Fuc(a1-2)Gal(b1-3)[Fuc(a1-4)]GlcNAc(b1-2)Man(a1-3)[Fuc(a1-2)Gal(b1-3)[Fuc(a1-4)]GlcNAc(b1-2)Man(a1-6)]Man(b1-4)GlcNAc(b1-4)[Fuc(a1-6)]GlcNAc(b1-4)[Fuc(a1-6)]GlcNAc
Outline: as §1

[17] = biological target: Fuc(a1-2)Gal(b1-3)[Fuc(a1-4)]GlcNAc(b1-3)[Fuc(a1-3)[Gal(b1-4)]GlcNAc(b1-6)]Gal(b1-4)Glc
Outline: as §1

[18] = biological target: Fuc(a1-2)Gal(b1-3)[Fuc(a1-4)]GlcNAc(b1-3)[Gal(b1-4)GlcNAc(b1-6)]Gal(b1-4)Glc
Outline: as §1

Fuc(a1-2)Gal(b1-4)Glc = biological target: Fuc(a1-2)Gal(b1-4)Glc
Outline: as §1

Fuc(a1-2)Gal(b1-4)Glc6S = biological target: Fuc(a1-2)Gal(b1-4)Glc6S
Outline: as §1

Fuc(a1-2)Gal(b1-4)GlcNAc = biological target: Fuc(a1-2)Gal(b1-4)GlcNAc
Outline: as §1

[19] = biological target: Fuc(a1-2)Gal(b1-4)GlcNAc(b1-2)Man
Outline: as §1

[20] = biological target: Fuc(a1-2)Gal(b1-4)GlcNAc(b1-2)Man(a1-3)[Fuc(a1-2)Gal(b1-4)GlcNAc(b1-2)Man(a1-6)]Man(b1-4)GlcNAc(b1-4)GlcNAc
Outline: as §1

[21] = biological target: Fuc(a1-2)Gal(b1-4)GlcNAc(b1-2)Man(a1-3)[Fuc(a1-2)Gal(b1-4)GlcNAc(b1-2)Man(a1-6)]Man(b1-4)GlcNAc(b1-4)[Fuc(a1-6)]GlcNAc
Outline: as §1

[22] = biological target: Fuc(a1-2)Gal(b1-4)GlcNAc(b1-2)[Fuc(a1-2)Gal(b1-4)GlcNAc(b1-4)]Man(a1-3)[Fuc(a1-2)Gal(b1-4)GlcNAc(b1-2)Man(a1-6)]Man(b1-4)GlcNAc(b1-4)GlcNAc
Outline: as §1

[23] = biological target: Fuc(a1-2)Gal(b1-4)GlcNAc(b1-3)Gal(b1-4)GlcNAc
Outline: as §1

[24] = biological target: Fuc(a1-2)Gal(b1-4)GlcNAc(b1-3)Gal(b1-4)GlcNAc(b1-2)Man(a1-3)[Fuc(a1-2)Gal(b1-4)GlcNAc(b1-3)Gal(b1-4)GlcNAc(b1-2)Man(a1-6)]Man(b1-4)GlcNAc(b1-4)GlcNAc
Outline: as §1

[25] = biological target: Fuc(a1-2)Gal(b1-4)GlcNAc(b1-3)Gal(b1-4)GlcNAc(b1-3)Gal(b1-4)GlcNAc
Outline: as §1

[26] = biological target: Fuc(a1-2)Gal(b1-4)GlcNAc(b1-3)GalNAc
Outline: as §1

[27] = biological target: Fuc(a1-2)Gal(b1-4)GlcNAc(b1-3)[Fuc(a1-2)Gal(b1-4)GlcNAc(b1-6)]GalNAc
Outline: as §1

[28] = biological target: Fuc(a1-2)Gal(b1-4)GlcNAc(b1-3)[Fuc(a1-3)[Gal(b1-4)]GlcNAc(b1-6)]Gal(b1-4)Glc
Outline: as §1

[29] = biological target: Fuc(a1-2)Gal(b1-4)GlcNAc(b1-6)GalNAc
Outline: as §1

[30] = biological target: Fuc(a1-2)Gal(b1-4)GlcNAc6S
Outline: as §1

[31] = biological target: Fuc(a1-2)Gal(b1-4)[Fuc(a1-3)]GlcNAc
Outline: as §1

B1: Nc3LysM (protein)
chain: QFTVPPDTTAEPNTIKTCTWWHVAGSGDSCTSIASTYGITSEQFARWDMETTDSPKNPSVATACKLTVGNSYCIENNFGQDDPPTPSISSSTLIGTATTSTTASTTTGNGISTPTPIQEGMETATTTTSSGNGITTPTPTQAGMETVGNCDRFHLVKSGDQCGTIASTYGITLANFYSWNPAVGTSCQSLWLDTYVCVRTIGFVPPKTTTTTTKKPTSTTSAGGVATPTPTQPGMETVSGCKKFHKGRGNVSTVASGDQCGTIATRYGISLANFYSWNPAVGSSCQTLWLDYYVCVGR
What does the source list for B1?
glycan array binding signal (z-score) (Fuc(a1-2)Gal): -0.045; glycan array binding signal (z-score) (Fuc(a1-2)Gal(b1-3)GalNAc): -0.011; glycan array binding signal (z-score) [1]: -0.272; glycan array binding signal (z-score) [2]: -0.03; glycan array binding signal (z-score) [3]: -0.014; glycan array binding signal (z-score) [4]: 0.066; glycan array binding signal (z-score) [5]: 0.115; glycan array binding signal (z-score) (Fuc(a1-2)Gal(b1-3)GlcNAc): -0.102; glycan array binding signal (z-score) [6]: -0.199; glycan array binding signal (z-score) [7]: -0.202; glycan array binding signal (z-score) [8]: 0.008; glycan array binding signal (z-score) [9]: -0.059; glycan array binding signal (z-score) [10]: 0.2; glycan array binding signal (z-score) [11]: -0.155; glycan array binding signal (z-score) [12]: -0.314; glycan array binding signal (z-score) [13]: 0.034; glycan array binding signal (z-score) [14]: 0.118; glycan array binding signal (z-score) [15]: 0.066; glycan array binding signal (z-score) [16]: -0.192; glycan array binding signal (z-score) [17]: -0.135; glycan array binding signal (z-score) [18]: -0.179; glycan array binding signal (z-score) (Fuc(a1-2)Gal(b1-4)Glc): 0.401; glycan array binding signal (z-score) (Fuc(a1-2)Gal(b1-4)Glc6S): 0.121; glycan array binding signal (z-score) (Fuc(a1-2)Gal(b1-4)GlcNAc): -0.219; glycan array binding signal (z-score) [19]: -0.104; glycan array binding signal (z-score) [20]: -0.124; glycan array binding signal (z-score) [21]: -0.258; glycan array binding signal (z-score) [22]: -0.032; glycan array binding signal (z-score) [23]: -0.004; glycan array binding signal (z-score) [24]: -0.037; glycan array binding signal (z-score) [25]: -0.012; glycan array binding signal (z-score) [26]: -0.257; glycan array binding signal (z-score) [27]: -0.181; glycan array binding signal (z-score) [28]: 0.036; glycan array binding signal (z-score) [29]: 0.068; glycan array binding signal (z-score) [30]: -0.064; glycan array binding signal (z-score) [31]: -0.016
